The source of these data is PMC4336329 (PLoS ONE, 2015).

Molecules are shown by their SMILES. Screen size: about 310,000 compounds; about 14,000 (4.5%) showed an effect of 50% or more. Effects have a minus sign here. Some of the results follow.
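Note: peak tail current of the secondary pulse compared with the same well before compound.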

In the experiment the target is human ether-à-go-go-related gene (hERG) potassium channel (human, UniProt Q12809). As to the kind of experiment: primary screen, population patch clamp on CHO cells stably expressing hERG.
Chain of human ether-à-go-go-related gene (hERG) potassium channel (Q12809 whole entry, looked up): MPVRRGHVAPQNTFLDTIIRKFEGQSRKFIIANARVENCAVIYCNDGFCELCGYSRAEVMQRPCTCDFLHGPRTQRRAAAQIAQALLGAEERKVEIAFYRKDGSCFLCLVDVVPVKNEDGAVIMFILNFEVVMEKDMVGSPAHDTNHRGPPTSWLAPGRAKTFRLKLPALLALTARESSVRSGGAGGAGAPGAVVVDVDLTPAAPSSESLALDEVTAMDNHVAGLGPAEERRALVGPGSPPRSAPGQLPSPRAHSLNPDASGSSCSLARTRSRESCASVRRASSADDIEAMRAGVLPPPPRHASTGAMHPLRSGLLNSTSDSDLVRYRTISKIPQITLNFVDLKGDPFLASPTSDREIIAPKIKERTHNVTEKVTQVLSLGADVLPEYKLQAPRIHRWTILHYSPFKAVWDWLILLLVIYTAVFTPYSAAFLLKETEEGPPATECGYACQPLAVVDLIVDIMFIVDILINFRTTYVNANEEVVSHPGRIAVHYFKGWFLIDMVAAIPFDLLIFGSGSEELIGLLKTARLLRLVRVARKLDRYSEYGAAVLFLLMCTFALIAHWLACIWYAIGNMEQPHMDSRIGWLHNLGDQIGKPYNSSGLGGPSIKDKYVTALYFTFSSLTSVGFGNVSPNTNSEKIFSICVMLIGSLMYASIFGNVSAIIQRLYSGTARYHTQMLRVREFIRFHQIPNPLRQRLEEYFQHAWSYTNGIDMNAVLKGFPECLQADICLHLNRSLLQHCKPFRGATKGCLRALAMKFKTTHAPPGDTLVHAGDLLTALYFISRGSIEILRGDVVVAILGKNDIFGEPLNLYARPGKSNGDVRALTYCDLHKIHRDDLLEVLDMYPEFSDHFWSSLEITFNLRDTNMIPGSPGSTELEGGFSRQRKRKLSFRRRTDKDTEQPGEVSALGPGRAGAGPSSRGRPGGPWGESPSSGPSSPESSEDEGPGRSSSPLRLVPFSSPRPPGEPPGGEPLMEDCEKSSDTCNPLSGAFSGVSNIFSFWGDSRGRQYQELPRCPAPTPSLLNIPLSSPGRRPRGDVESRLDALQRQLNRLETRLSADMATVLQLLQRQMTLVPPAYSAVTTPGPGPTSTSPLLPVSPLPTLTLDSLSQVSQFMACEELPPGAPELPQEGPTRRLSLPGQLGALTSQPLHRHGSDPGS
With `O=C(Oc1ccc2c3c(c(=O)oc2c1)CCCC3)c1cccs1`, the “hERG current change (%, negative = inhibition) at 10uM” value is -4.43%.
Consider `CCCc1cc(C(=O)NC2CCCCC2)no1`, for which the “hERG current change (%, negative = inhibition) at 10uM” value is recorded as -14.2%.
On to `CCC1(C)Cc2c(C#N)c(N)n(-c3ccccc3)c(=S)c2CO1` (stereo not drawn), for which the “hERG current change (%, negative = inhibition) at 10uM” value is listed as -2.01%.
Take `COc1ccc(NC2=C(C(C)=O)C(c3ccc4c(c3)OCO4)C(C(C)=O)C(C)(O)C2)cc1` (stereo not drawn): the “hERG current change (%, negative = inhibition) at 10uM” value is recorded as -1.51%.
As to `Cc1ccc(CNC(=O)C2CCN(S(=O)(=O)c3c(C)noc3C)CC2)cc1`, the “hERG current change (%, negative = inhibition) at 10uM” value came out at 8.15%.
Regarding `CCOc1ccc(CCNC(=O)Cn2c(=O)c3cccn3c3cccnc32)cc1`, the “hERG current change (%, negative = inhibition) at 10uM” value is listed as 4.32%.
As for `COCCNC(=O)c1onc(CSc2ccc(F)c(F)c2)c1C(=O)NCCOC`, the “hERG current change (%, negative = inhibition) at 10uM” value is reported as -25.5%.
As to `Cc1cc(NC(=O)CSc2nc3c(c(=O)n(C)c(=O)n3C)n2C(C)C)no1`, the “hERG current change (%, negative = inhibition) at 10uM” value amounted to 4.84%.
Take `CCCCN(C(=O)C(C)(C)Oc1ccc(Cl)cc1)c1c(N)n(CCC)c(=O)[nH]c1=O`: the “hERG current change (%, negative = inhibition) at 10uM” value came to 9.47%.
As for `CCc1nnc(NC(=O)CSc2nc3cc4c(cc3cc2CC)OCCO4)s1`, the figure is -9.7%.
`COc1ccc(S(=O)(=O)N2CCCC(C(=O)NCC3CCCO3)C2)cc1C` (stereo not drawn): the “hERG current change (%, negative = inhibition) at 10uM” value is reported as 0.251%.
With `N/C(=N\S(=O)(=O)c1ccccc1)c1ccc([N+](=O)[O-])cc1` the figure was -30%; with `COn1c(-c2ccccc2)nc2ccc(Cl)cc21`, -19%.
For `COc1ccc(S(=O)(=O)N2CCN=C2SCc2cccc(F)c2)cc1`, the “hERG current change (%, negative = inhibition) at 10uM” value was determined as 5.41%.
As to `CC(=O)Nc1ccc(S(=O)(=O)NC2(C(F)(F)F)C(=O)Nc3c2c(=O)[nH]c(=O)n3Cc2ccccc2)cc1` (stereo not drawn), the “hERG current change (%, negative = inhibition) at 10uM” value is on record as 4.59%.
In the case of `CCN(c1ccccc1)S(=O)(=O)c1ccc2c(c1)N(C(C)=O)CCO2`, the “hERG current change (%, negative = inhibition) at 10uM” value is on record as -4.11%.
Consider `Cc1cc(C(=O)N2CCN(C/C=C/c3ccccc3)CC2)cs1`, for which the “hERG current change (%, negative = inhibition) at 10uM” value was -34.5%.
On to `CC(C(=O)NC1CC(C)(C)NC(C)(C)C1)c1ccc([N+](=O)[O-])cc1` (stereo not drawn), for which the “hERG current change (%, negative = inhibition) at 10uM” value worked out at 9.86%.
With `O=C(OCC(=O)N1CCN(C(=O)c2ccco2)CC1)c1ccccc1OCc1ccccc1` the figure was -43.3%; with `CC(=O)Nc1ccc(C(C#N)c2ccccc2)cc1` (stereo not drawn), 1.6%.
Turning to `CCCN1CCN(C(=O)c2noc3c2COc2ccc(C)cc2-3)CC1`, the “hERG current change (%, negative = inhibition) at 10uM” value is listed as -8.37%.
Take `COc1ccccc1NS(=O)(=O)c1cc(NC(=O)C2=NNC(=O)CC2)ccc1C`: the “hERG current change (%, negative = inhibition) at 10uM” value is recorded as -5.66%.
As to `Cc1nn2c(=O)cc(CSc3ccccc3NC(=O)c3ccccc3)nc2s1`, the “hERG current change (%, negative = inhibition) at 10uM” value is -4.63%.
With `CCOC(=O)c1sc(-c2ccccc2)cc1N` the figure was 20.8%; with `Cc1nc2ccccc2c(=O)n1-c1ccccc1[N+](=O)[O-]`, 17.2%; with `CCOc1ccc2c(c1)c(N=NC(N)=S)c(O)n2C`, 1.21%.
Consider `CCCN(CCC)C(=O)CSc1nc2ccsc2c(=O)n1NC(=O)c1ccccc1`, for which the “hERG current change (%, negative = inhibition) at 10uM” value is -16.1%.
Turning to `COC(=O)C(O)(NC(=O)OCc1ccccc1)C(F)(F)F` (stereo not drawn), the “hERG current change (%, negative = inhibition) at 10uM” value was found to be 1.32%.
Turning to `CNS(=O)(=O)c1ccc(NC(=S)Nc2ccc3c(c2)OCO3)cc1`, the “hERG current change (%, negative = inhibition) at 10uM” value amounted to 8.16%.
With `Cc1ccc(C)c(N2C(=O)CC(N3CCN(Cc4ccc5c(c4)OCO5)CC3)C2=O)c1` (stereo not drawn), the “hERG current change (%, negative = inhibition) at 10uM” value is reported as -43.4%.
Take `CCCC1=[N+](CC(=O)c2ccccc2)CCn2c(C)ccc21.[Br-]`: the “hERG current change (%, negative = inhibition) at 10uM” value turned out to be 2.56%.
Consider `COCCOC(=O)c1[nH]c2c(c1C)C(=O)CC(c1cc(OC)c(OC)c(OC)c1)C2` (stereo not drawn), for which the “hERG current change (%, negative = inhibition) at 10uM” value is -2.61%.
Consider `CCOC(=O)c1cccc(NC(=O)CN2CCN(c3ccc(OC)cc3)CC2)c1`, for which the “hERG current change (%, negative = inhibition) at 10uM” value is reported as -31.1%.
In the case of `C[C@H]1CN=C(Nc2ccccc2)N1CC1CCCCC1`, the “hERG current change (%, negative = inhibition) at 10uM” value is listed as 0.474%.
With `O=C1CC(=O)N(c2cccc(F)c2)N1` the figure was 20.5%; with `CCCCn1c(N)c(N(CCOC)C(=O)CCCc2nc3ccccc3c(=O)[nH]2)c(=O)[nH]c1=O`, 4.54%; with `O=C(CCC(=O)c1cccs1)OCc1nc2ccccc2s1`, 15.6%.
For `Cc1ccc(-c2nc(C3CCCN(S(=O)(=O)c4ccc(C)cc4)C3)no2)cc1` (stereo not drawn), the “hERG current change (%, negative = inhibition) at 10uM” value was found to be 12.2%.
Regarding `CCN(CC(=O)Nc1ccccc1C(F)(F)F)C(=O)CN1C(=O)NC2(CCCCC2)C1=O`, the “hERG current change (%, negative = inhibition) at 10uM” value came to 3.96%.
In the case of `CN1CCN(C(=O)c2cc(-c3cccc(Cl)c3)on2)CC1`, the “hERG current change (%, negative = inhibition) at 10uM” value is recorded as -1.97%.
`CCCCOC(=O)c1sc2nc(C)cc(C)c2c1N`: the “hERG current change (%, negative = inhibition) at 10uM” value was found to be 11.7%.
As for `Cc1ccc(-c2cc(C(=O)N(C)CC(=O)Nc3ccccc3Br)c3ccccc3n2)o1`, the figure is -7.28%; as for `CCOC(=O)C1=C(C)OC(N)=C(C#N)C1c1cc(F)ccc1F` (stereo not drawn), -9.31%; as for `O=C(NCc1cccnc1)/C(=C/c1ccc(-c2ccc(Cl)cc2)o1)S(=O)(=O)c1ccccc1`, -2.83%.
With `Cc1ccccc1-n1nc2c(c1NC(=O)c1c(-c3ccccc3Cl)noc1C)CSC2`, the “hERG current change (%, negative = inhibition) at 10uM” value is -10.9%.
With `COc1ccc(NS(=O)(=O)c2ccc(NC(=O)Cc3cccs3)cc2)cc1` the figure was 12.7%; with `O=C(COC(=O)/C=C/c1cccc(Br)c1)NCCC1=CCCCC1`, 32.1%.
Turning to `CCCCCCC(=O)N/N=C/c1ccc(Br)cc1`, the “hERG current change (%, negative = inhibition) at 10uM” value came out at 1.25%.
Take `Cc1ccccc1NC(=O)CN1CCN(C)CC1.O=C(O)C(=O)O`: the “hERG current change (%, negative = inhibition) at 10uM” value is 2.24%.
In the case of `CCc1ccc(OCC(=O)N(CC)CC)cc1`, the “hERG current change (%, negative = inhibition) at 10uM” value is on record as -55%.
Consider `O=c1[nH]c(=S)n(C2CC2)c(O)c1C=NCc1ccc(F)cc1`, for which the “hERG current change (%, negative = inhibition) at 10uM” value is given as 12.7%.
As for `COc1ccc(Cl)cc1N(CC(=O)Nc1ccc2c(c1)OCCO2)S(C)(=O)=O`, the “hERG current change (%, negative = inhibition) at 10uM” value was -3.52%.
With `Cc1ccc(Cn2cnc3sc4c(c3c2=O)CCC4)c(C)c1` the figure was 1.77%; with `O=C(CSc1nc2ccccc2c(=O)n1-c1ccccc1)N1CCCc2ccccc21`, -4.39%.
Take `COCCCNC(=S)NC1CC2CCCC(C1)N2Cc1cccs1` (stereo not drawn): the “hERG current change (%, negative = inhibition) at 10uM” value was -15.9%.
For `COc1ccc(CCC(C)N2CCC(Oc3ccc(C(=O)N4CCCC4)cc3)CC2)cc1` (stereo not drawn), the “hERG current change (%, negative = inhibition) at 10uM” value is -65.4%.
As for `O=C(Cn1cnc2ccccc2c1=O)NNC(=O)c1cccc([N+](=O)[O-])c1`, the figure is 7.43%; as for `Cc1cnc(NC(=O)Cc2ccc(Br)cc2)s1`, 14.9%.
Consider `Cc1nc2ncnn2c(C)c1Cc1cccc(F)c1`, for which the “hERG current change (%, negative = inhibition) at 10uM” value came to 6.72%.
Consider `O=C(COn1nnc2ccc(C(F)(F)F)cc21)Nc1c(Cl)cccc1Cl`, for which the “hERG current change (%, negative = inhibition) at 10uM” value is recorded as -2.2%.
With `COc1ccc(C(C)(C)C)cc1NC(=O)CN1C(=O)C(=O)N(Cc2ccco2)C1=O` the figure was 2.86%.
Consider `COc1ccc(-n2c(C)c(C)c3c(N)ncnc32)cc1`, for which the “hERG current change (%, negative = inhibition) at 10uM” value is reported as 4.6%.
With `COC(=O)c1ccccc1NC(=O)c1ccc(COc2ccc3c(c2)CCC3)cc1` the figure was 5.47%; with `C/C=C(/C)C(=O)Nc1cccc(C2=NOC3(C2)C[C@H](C(N)=O)N(C(=O)c2ccccc2)C3)c1` (stereo partly drawn), -3.11%; with `O=C1CCCC2=C1C(c1ccc(O)c(O)c1)c1c(ccc3ncccc13)N2` (stereo not drawn), 17.1%.
As for `CC(C)c1cc(C(=O)NCc2ccco2)no1`, the figure is 2.53%; as for `CCCCC/C=N/NC(=O)c1[nH]c2ccc([N+](=O)[O-])cc2c1C`, -29.9%; as for `COc1ccc(N2CCN(C(CNC(C)=O)c3ccco3)CC2)cc1` (stereo not drawn), 20.2%.
In the case of `Oc1ccc(Br)cc1/C=N/n1c(COc2ccccc2)n[nH]c1=S`, the “hERG current change (%, negative = inhibition) at 10uM” value amounted to 16.5%.
As for `CC(Sc1nc2ccccc2c(=O)[nH]1)C(=O)O` (stereo not drawn), the figure is 11.7%; as for `Cc1onc(-c2ccccc2)c1-c1n[nH]c(=S)n1-c1ccccc1`, 19.4%; as for `CC(C)c1cc(C(=O)N2CCCC(CCC(=O)N3CCN(c4ccccn4)CC3)C2)no1` (stereo not drawn), -36.8%.
With `Nc1nnc(SCC(=O)N2CCc3ccccc3C2)s1` the figure was 11.7%; with `O=C(Nc1ccccc1)/C(=C/c1ccc([N+](=O)[O-])cc1)NC(=O)c1ccco1`, 6.42%.
For the compound `O=C(COc1ccc([N+](=O)[O-])cc1)Nc1ccc2c(c1)nc1n2CCOC1`, the “hERG current change (%, negative = inhibition) at 10uM” value is given as -31.1%.
As for `CN(C)CCCN1C(=O)CSC1c1ccccc1.Cl` (stereo not drawn), the figure is 1.24%; as for `Cc1ccc(CNC(=O)CSc2nc3c(sc4ccccc43)c(=O)n2CCCN2CCCC2)cc1`, -82.8%; as for `CCC(C)(C)C1CCc2c(sc(NC(=O)c3ccccc3C(=O)O)c2C#N)C1` (stereo not drawn), 10.3%.
Take `O=C(Nc1ccc(Br)cc1)c1cccc(N2C(=O)C3CCCCC3C2=O)c1` (stereo not drawn): the “hERG current change (%, negative = inhibition) at 10uM” value was determined as 1.69%.
Consider `Cc1nc2cc(-c3ccsc3-n3c(C)ccc3C)[nH]n2c(=O)c1Cl`, for which the “hERG current change (%, negative = inhibition) at 10uM” value was -7.67%.
With `NC(=O)C1CCN(Cc2ccc(OCc3ccccc3)cc2)CC1.O=C(O)C(=O)O`, the “hERG current change (%, negative = inhibition) at 10uM” value is on record as -29.5%.
On to `COC(=O)c1ccc(NC(=S)Nc2cccc(C)n2)cc1`, for which the “hERG current change (%, negative = inhibition) at 10uM” value is -0.48%.
Turning to `Cc1ccc(S(=O)(=O)N2CCOCC2)cc1NC(=O)CSc1ncccn1`, the “hERG current change (%, negative = inhibition) at 10uM” value is -4.68%.
Take `CCOCCCNc1nc2c(C)cccn2c(=O)c1/C=C1\SC(=S)N(C(C)CC)C1=O` (stereo not drawn): the “hERG current change (%, negative = inhibition) at 10uM” value came to 10.9%.
Take `Cc1ccc(C(=O)OCC(=O)N2C(C)CCCC2C)cc1S(=O)(=O)N1CCOCC1` (stereo not drawn): the “hERG current change (%, negative = inhibition) at 10uM” value is on record as -13%.
Consider `Cc1ccc(NC(=S)NC(NC(=O)C(C)(C)C)C(Cl)(Cl)Cl)c(C)c1` (stereo not drawn), for which the “hERG current change (%, negative = inhibition) at 10uM” value was -24.6%.
As for `COC(=O)c1ccc(CN2CCCC(CO)(Cc3ccccc3F)C2)cc1` (stereo not drawn), the figure is -32.7%.
